{
  "source": "the supplement of paper PMC4604168 (melanoma cell lines)",
  "note": "Some of the results follow. Most values come without repeats; read them as rough.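 Further: cells treated in 1,536-well plates, then fixed and DAPI-stained, with nuclei counted from automated high-throughput microscope images.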",
  "data": [
    {"system": "A2058", "experiment": "cell count relative to DMSO control; higher = more viable cells", "details": "library dose: standard library concentration; 72 h", "units": {"cell count": "%"}, "values": [
      {"smiles": "Nc1cccc2c1CN(C1CCC(=O)NC1=O)C2=O", "note": "(stereo not drawn) [lenalidomide] + Cc1cc(N2CCOCC2)cc2[nH]c(-c3c(NC[C@@H](O)c4cccc(Cl)c4)cc[nH]c3=O)nc12 [BMS536924] (first compound 5 µM, partner dose 1 µM)", "cell count": 88.2},
      {"smiles": "O=C(CCCCCCC(=O)Nc1ccccc1)NO", "note": "[vorinostat] + CC1(C)NC(=O)N(c2ccc([N+](=O)[O-])c(C(F)(F)F)c2)C1=O [nilutamide] (first compound 0.4 µM, partner dose 5 µM)", "cell count": 93.1},
      {"smiles": "COCC[n+]1c2c(n(Cc3cnccn3)c1C)C(=O)c1ccccc1C2=O", "note": "+ O=C(O)c1ccc(-c2c[nH]c3ncc(-c4ccccc4)cc23)cc1C1CCCC1 [GSK650394] (first compound 0.002 µM, partner dose 0.8 µM)", "cell count": 25.2},
      {"smiles": "C#Cc1cccc(Nc2ncnc3cc(OCCOC)c(OCCOC)cc23)c1", "note": "[erlotinib] + C[C@@H]1CCN(C(=O)CC#N)C[C@@H]1N(C)c1ncnc2[nH]ccc12 [CP690550] (first compound 4 µM, partner dose 5 µM)", "cell count": 85.4},
      {"smiles": "COCC[n+]1c2c(n(Cc3cnccn3)c1C)C(=O)c1ccccc1C2=O", "note": "+ CN(NC(=O)CC(=O)NN(C)C(=S)c1ccccc1)C(=S)c1ccccc1 [STA4783] (first compound 0.002 µM, partner dose 0.03 µM)", "cell count": 5.43},
      {"smiles": "Cn1c(Nc2ccc(C(F)(F)F)cc2)nc2cc(Oc3ccnc(-c4ncc(C(F)(F)F)[nH]4)c3)ccc21", "note": "+ CO[C@@H]1[C@H](N(C)C(=O)c2ccccc2)C[C@H]2O[C@]1(C)n1c3ccccc3c3c4c(c5c6ccccc6n2c5c31)C(=O)NC4 [Midostaurin] (first compound 0.4 µM, partner dose 0.4 µM)", "cell count": 23.6},
      {"smiles": "C#Cc1cccc(Nc2ncnc3cc(OCCOC)c(OCCOC)cc23)c1", "note": "[erlotinib] + NC(=O)Nc1cc(-c2cccc(F)c2)sc1C(=O)N[C@H]1CCCNC1 [AZD7762] (first compound 4 µM, partner dose 0.1 µM)", "cell count": 75.3},
      {"smiles": "OCc1c[nH]c2ccccc12", "note": "[Indole-3-carbinol] + O=C(Nc1cccc(Cl)c1)Nc1ncc(CCNc2ncnc3ccsc23)s1 [SNS314] (first compound 4 µM, partner dose 0.004 µM)", "cell count": 126},
      {"smiles": "Clc1ccc(Nc2nnc(Cc3ccncc3)c3ccccc23)cc1", "note": "[vatalanib] + Nc1cccc2c1CN(C1CCC(=O)NC1=O)C2=O [lenalidomide] (first compound 10 µM, partner dose 5 µM)", "cell count": 109},
      {"smiles": "COCC[n+]1c2c(n(Cc3cnccn3)c1C)C(=O)c1ccccc1C2=O", "note": "+ O=C(Nc1cccc(Cl)c1)Nc1ncc(CCNc2ncnc3ccsc23)s1 [SNS314] (first compound 0.002 µM, partner dose 0.004 µM)", "cell count": 19.3}
    ]},
    {"system": "A375", "experiment": "cell count relative to DMSO control; melanoma cells; higher = more viable cells", "details": "library dose: standard library concentration; 72 h", "units": {"cell count": "%"}, "values": [
      {"smiles": "Clc1ccc(Nc2nnc(Cc3ccncc3)c3ccccc23)cc1", "note": "[vatalanib] + CN(NC(=O)CC(=O)NN(C)C(=S)c1ccccc1)C(=S)c1ccccc1 [STA4783] (first compound 10 µM, partner dose 0.03 µM)", "cell count": 99},
      {"smiles": "Clc1ccc(Nc2nnc(Cc3ccncc3)c3ccccc23)cc1", "note": "[vatalanib] + OCCn1cc(-c2cnc3nnn(Cc4ccc5ncccc5c4)c3n2)cn1 [PF04217903] (first compound 10 µM, partner dose 5 µM)", "cell count": 90.9},
      {"smiles": "OCc1c[nH]c2ccccc12", "note": "[Indole-3-carbinol] + C#Cc1cccc(Nc2ncnc3cc(OCCOC)c(OCCOC)cc23)c1 [erlotinib] (first compound 4 µM, partner dose 4 µM)", "cell count": 70.6},
      {"smiles": "COCC[n+]1c2c(n(Cc3cnccn3)c1C)C(=O)c1ccccc1C2=O", "note": "+ NCC(=O)Nc1ccc(-n2nc(C(F)(F)F)cc2-c2ccc3c(ccc4ccccc43)c2)cc1 [OSU03012] (first compound 0.002 µM, partner dose 5 µM)", "cell count": 48.9},
      {"smiles": "Cn1c(Nc2ccc(C(F)(F)F)cc2)nc2cc(Oc3ccnc(-c4ncc(C(F)(F)F)[nH]4)c3)ccc21", "note": "+ COc1cc(Nc2ncc(F)c(Nc3ccc4c(n3)NC(=O)C(C)(C)O4)n2)cc(OC)c1OC [Tamatinib] (first compound 0.4 µM, partner dose 2 µM)", "cell count": 96.4},
      {"smiles": "COCC[n+]1c2c(n(Cc3cnccn3)c1C)C(=O)c1ccccc1C2=O", "note": "+ Cn1nnc2c(C(N)=O)ncn2c1=O [temozolomide] (first compound 0.002 µM, partner dose 10 µM)", "cell count": 72.5},
      {"smiles": "Cn1c(Nc2ccc(C(F)(F)F)cc2)nc2cc(Oc3ccnc(-c4ncc(C(F)(F)F)[nH]4)c3)ccc21", "note": "+ Cc1cc(N2CCOCC2)cc2[nH]c(-c3c(NC[C@@H](O)c4cccc(Cl)c4)cc[nH]c3=O)nc12 [BMS536924] (first compound 0.4 µM, partner dose 1 µM)", "cell count": 79.4},
      {"smiles": "OCc1c[nH]c2ccccc12", "note": "[Indole-3-carbinol] + NCC(=O)Nc1ccc(-n2nc(C(F)(F)F)cc2-c2ccc3c(ccc4ccccc43)c2)cc1 [OSU03012] (first compound 4 µM, partner dose 5 µM)", "cell count": 59.1},
      {"smiles": "COCC[n+]1c2c(n(Cc3cnccn3)c1C)C(=O)c1ccccc1C2=O", "note": "+ C[C@@H]1CCN(C(=O)CC#N)C[C@@H]1N(C)c1ncnc2[nH]ccc12 [CP690550] (first compound 0.002 µM, partner dose 5 µM)", "cell count": 149},
      {"smiles": "OCc1c[nH]c2ccccc12", "note": "[Indole-3-carbinol] + CN(NC(=O)CC(=O)NN(C)C(=S)c1ccccc1)C(=S)c1ccccc1 [STA4783] (first compound 4 µM, partner dose 0.03 µM)", "cell count": 108},
      {"smiles": "COCC[n+]1c2c(n(Cc3cnccn3)c1C)C(=O)c1ccccc1C2=O", "note": "+ COc1cc2c(Oc3ccc4[nH]c(C)cc4c3F)ncnc2cc1OCCCN1CCCC1 [cediranib] (first compound 0.002 µM, partner dose 2 µM)", "cell count": 83.7},
      {"smiles": "Clc1ccc(Nc2nnc(Cc3ccncc3)c3ccccc23)cc1", "note": "[vatalanib] + Cn1c(Nc2ccc(C(F)(F)F)cc2)nc2cc(Oc3ccnc(-c4ncc(C(F)(F)F)[nH]4)c3)ccc21 [CHIR265] (first compound 10 µM, partner dose 0.4 µM)", "cell count": 85.1},
      {"smiles": "Clc1ccc(Nc2nnc(Cc3ccncc3)c3ccccc23)cc1", "note": "[vatalanib] + O=C(Nc1cccc(Cl)c1)Nc1ncc(CCNc2ncnc3ccsc23)s1 [SNS314] (first compound 10 µM, partner dose 0.004 µM)", "cell count": 93.8},
      {"smiles": "COCC[n+]1c2c(n(Cc3cnccn3)c1C)C(=O)c1ccccc1C2=O", "note": "+ NC(=O)Nc1cc(-c2cccc(F)c2)sc1C(=O)N[C@H]1CCCNC1 [AZD7762] (first compound 0.002 µM, partner dose 0.1 µM)", "cell count": 60.6},
      {"smiles": "O=C(CCCCCCC(=O)Nc1ccccc1)NO", "note": "[vorinostat] + COc1cc(Nc2ncc(F)c(Nc3ccc4c(n3)NC(=O)C(C)(C)O4)n2)cc(OC)c1OC [Tamatinib] (first compound 0.4 µM, partner dose 2 µM)", "cell count": 80.6},
      {"smiles": "Clc1ccc(Nc2nnc(Cc3ccncc3)c3ccccc23)cc1", "note": "[vatalanib] + CC1(C)NC(=O)N(c2ccc([N+](=O)[O-])c(C(F)(F)F)c2)C1=O [nilutamide] (first compound 10 µM, partner dose 5 µM)", "cell count": 85.6},
      {"smiles": "Nc1cccc2c1CN(C1CCC(=O)NC1=O)C2=O", "note": "(stereo not drawn) [lenalidomide] + NC(=O)Nc1cc(-c2cccc(F)c2)sc1C(=O)N[C@H]1CCCNC1 [AZD7762] (first compound 5 µM, partner dose 0.1 µM)", "cell count": 60.7},
      {"smiles": "O=C(CCCCCCC(=O)Nc1ccccc1)NO", "note": "[vorinostat] + CO[C@@H]1[C@H](N(C)C(=O)c2ccccc2)C[C@H]2O[C@]1(C)n1c3ccccc3c3c4c(c5c6ccccc6n2c5c31)C(=O)NC4 [Midostaurin] (first compound 0.4 µM, partner dose 0.4 µM)", "cell count": 53.1},
      {"smiles": "O=C(CCCCCCC(=O)Nc1ccccc1)NO", "note": "[vorinostat] + Cn1cncc1[C@@](N)(c1ccc(Cl)cc1)c1ccc2c(c1)c(-c1cccc(Cl)c1)cc(=O)n2C [tipifarnib] (first compound 0.4 µM, partner dose 0.05 µM)", "cell count": 107},
      {"smiles": "Nc1cccc2c1CN(C1CCC(=O)NC1=O)C2=O", "note": "(stereo not drawn) [lenalidomide] + NCC(=O)Nc1ccc(-n2nc(C(F)(F)F)cc2-c2ccc3c(ccc4ccccc43)c2)cc1 [OSU03012] (first compound 5 µM, partner dose 5 µM)", "cell count": 63.9},
      {"smiles": "O=C(CCCCCCC(=O)Nc1ccccc1)NO", "note": "[vorinostat] + COc1cc2c(Oc3ccc4[nH]c(C)cc4c3F)ncnc2cc1OCCCN1CCCC1 [cediranib] (first compound 0.4 µM, partner dose 2 µM)", "cell count": 110},
      {"smiles": "Nc1cccc2c1CN(C1CCC(=O)NC1=O)C2=O", "note": "(stereo not drawn) [lenalidomide] + CN(C)S(=O)(=O)c1ccc2c(c1)/C(=C/c1cc3c([nH]1)CCCC3)C(=O)N2 [SU6656] (first compound 5 µM, partner dose 2 µM)", "cell count": 140},
      {"smiles": "OCc1c[nH]c2ccccc12", "note": "[Indole-3-carbinol] + COCC[n+]1c2c(n(Cc3cnccn3)c1C)C(=O)c1ccccc1C2=O [YM155] (first compound 4 µM, partner dose 0.002 µM)", "cell count": 92.6}
    ]}
  ]
}
